# Data as given in the supplement of paper PMC8728848.
# Some of the results follow.
# How the values were obtained:
# Assay in all cases: glycan array binding signal (z-score within array); higher = stronger binding
# Details in all cases: glycan notation: IUPAC condensed, linker removed
# [1] = target: Neu5Ac(a2-3)Gal(b1-4)GlcNAc(b1-3)[Neu5Ac(a2-3)Gal(b1-4)GlcNAc(b1-6)]GalNAc
# Procedure, shortened: (§1)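 Columns mapping to the same glycan were averaged after glycan names were converted to IUPAC-condensed notation. The data come from 3228 arrays in the Consortium for Functional Glycomics database, limited to those with an available protein sequence. Binding is reported as a within-array Z-score averaged across arrays of one protein sequence and across linkers.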
# [2] = target: Neu5Ac(a2-3)Gal(b1-4)GlcNAc(b1-6)GalNAc
# Procedure, shortened: as §1
# [3] = target: Neu5Ac(a2-3)Gal(b1-4)GlcNAc(b1-6)[Gal(b1-3)]GalNAc
# Procedure, shortened: as §1
# [4] = target: Neu5Ac(a2-3)Gal(b1-4)GlcNAc(b1-6)[Neu5Ac(a2-3)Gal(b1-3)]GalNAc
# Procedure, shortened: as §1
# [5] = target: Neu5Ac(a2-3)Gal(b1-4)GlcNAc6S
# Procedure, shortened: as §1
# [6] = target: Neu5Ac(a2-3)Gal(b1-4)[Fuc(a1-3)]GlcNAc
# Procedure, shortened: as §1
# [7] = target: Neu5Ac(a2-3)Gal(b1-4)[Fuc(a1-3)]GlcNAc(b1-2)Man
# Procedure, shortened: as §1
# [8] = target: Neu5Ac(a2-3)Gal(b1-4)[Fuc(a1-3)]GlcNAc(b1-3)Gal
# Procedure, shortened: as §1
# [9] = target: Neu5Ac(a2-3)Gal(b1-4)[Fuc(a1-3)]GlcNAc(b1-3)Gal(b1-4)GlcNAc
# Procedure, shortened: as §1
# [10] = target: Neu5Ac(a2-3)Gal(b1-4)[Fuc(a1-3)]GlcNAc(b1-3)Gal(b1-4)[Fuc(a1-3)]GlcNAc(b1-3)Gal(b1-4)[Fuc(a1-3)]GlcNAc
# Procedure, shortened: as §1
# [11] = target: Neu5Ac(a2-3)Gal(b1-4)[Fuc(a1-3)]GlcNAc(b1-3)GalNAc
# Procedure, shortened: as §1
# [12] = target: Neu5Ac(a2-3)Gal(b1-4)[Fuc(a1-3)]GlcNAc(b1-6)[Gal(b1-3)]GalNAc
# Procedure, shortened: as §1
# [13] = target: Neu5Ac(a2-3)Gal(b1-4)[Fuc(a1-3)]GlcNAc(b1-6)[Neu5Ac(a2-3)Gal(b1-3)]GalNAc
# Procedure, shortened: as §1
# [14] = target: Neu5Ac(a2-3)Gal(b1-4)[Fuc(a1-3)]GlcNAc6S
# Procedure, shortened: as §1
# [15] = target: Neu5Ac(a2-3)Gal6S(b1-4)GlcNAc
# Procedure, shortened: as §1
# [16] = target: Neu5Ac(a2-3)Gal6S(b1-4)[Fuc(a1-3)]GlcNAc
# Procedure, shortened: as §1
# Neu5Ac(a2-3)GalNAc = target: Neu5Ac(a2-3)GalNAc
# Procedure, shortened: as §1
# [17] = target: Neu5Ac(a2-3)GalNAc(b1-4)GlcNAc
# Procedure, shortened: as §1
# [18] = target: Neu5Ac(a2-3)[GalNAc(b1-4)]Gal(b1-4)Glc
# Procedure, shortened: as §1
# [19] = target: Neu5Ac(a2-3)[GalNAc(b1-4)]Gal(b1-4)GlcNAc
# Procedure, shortened: as §1
# [20] = target: Neu5Ac(a2-3)[GalNAc(b1-4)]Gal(b1-4)GlcNAc(b1-3)GalNAc
# Procedure, shortened: as §1
# [21] = target: Neu5Ac(a2-3)[Neu5Ac(a2-6)]GalNAc
# Procedure, shortened: as §1
# Neu5Ac(a2-6)Gal = target: Neu5Ac(a2-6)Gal
# Procedure, shortened: as §1
# [22] = target: Neu5Ac(a2-6)Gal(b1-3)GlcNAc(b1-3)[Gal(b1-4)GlcNAc(b1-6)]Gal(b1-4)Glc
# Procedure, shortened: as §1
# Neu5Ac(a2-6)Gal(b1-4)Glc = target: Neu5Ac(a2-6)Gal(b1-4)Glc
# Procedure, shortened: as §1
# [23] = target: Neu5Ac(a2-6)Gal(b1-4)GlcNAc
# Procedure, shortened: as §1
# [24] = target: Neu5Ac(a2-6)Gal(b1-4)GlcNAc(b1-2)Man
# Procedure, shortened: as §1
# [25] = target: Neu5Ac(a2-6)Gal(b1-4)GlcNAc(b1-2)Man(a1-3)Man(b1-4)GlcNAc(b1-4)GlcNAc
# Procedure, shortened: as §1
# [26] = target: Neu5Ac(a2-6)Gal(b1-4)GlcNAc(b1-2)Man(a1-3)[Gal(b1-4)GlcNAc(b1-2)Man(a1-6)]Man(b1-4)GlcNAc(b1-4)GlcNAc
# Procedure, shortened: as §1
# [27] = target: Neu5Ac(a2-6)Gal(b1-4)GlcNAc(b1-2)Man(a1-3)[GlcNAc(b1-2)Man(a1-6)]Man(b1-4)GlcNAc(b1-4)GlcNAc
# Procedure, shortened: as §1
binder,measurement,setting,value
CvGal2 (Crassostrea virginica) (protein) MGSSHHHHHHSSGLVPRGSHMRIREAGKRKDTTKVYQIPDGLFPGQQVMLRGRVPWGSKSFSINFSATPRMGEGDILFHLNPRPSEGVCIRNALLNGSWGAEEKWQPYFPFDDGRSFSVKIEVTNDAFRTFVNGRPFVDFLHRTDFRAGKYLTLREGAEYYDVIFQSKPNIPLTTAIHNGMRIGKTIRIRGMCTAQDGFAINFNDNRNNIYFHFNARPAQRTVVRNSYFGSWGNEETAISKEFPFYPFLYFYASFVCMEDKFAVYVNDEHFIDFAHRGNPNNISVLQIKGSVNVLDTECLEPMGEDAMTEVDSGLENGDLFVLNGLMTERGKTFAVNFLNGFTENDDIALHFNPRKSTGEVVLNSRYGGAWQSEEKVALPGVFWSNRPLQVKVETKRNKFKIYVNGVDLAKYKIRGNVEDVHAVQVKGDVFLLETLLLKRLMKPVWERLTGGIRPGTWVTLQGTPKKNWQQFVVNFALDDTLDGDIAFHFNVRRGARQVVRNHRQSGAWGREETVTPFFAFDSEATFEIVFFVKEEKFLIYFNGKLFFEFVHRVPVERITHIYMDGDCNFYEPEVVI,glycan array binding signal (z-score),[1],-0.328
same,glycan array binding signal (z-score),[2],-0.339
same,glycan array binding signal (z-score),[3],-0.331
same,glycan array binding signal (z-score),[4],-0.33
same,glycan array binding signal (z-score),[5],-0.337
same,glycan array binding signal (z-score),[6],-0.343
same,glycan array binding signal (z-score),[7],-0.331
same,glycan array binding signal (z-score),[8],-0.339
same,glycan array binding signal (z-score),[9],-0.328
same,glycan array binding signal (z-score),[10],-0.326
same,glycan array binding signal (z-score),[11],-0.292
same,glycan array binding signal (z-score),[12],-0.323
same,glycan array binding signal (z-score),[13],-0.333
same,glycan array binding signal (z-score),[14],-0.321
same,glycan array binding signal (z-score),[15],-0.334
same,glycan array binding signal (z-score),[16],-0.342
same,glycan array binding signal (z-score),Neu5Ac(a2-3)GalNAc,-0.322
same,glycan array binding signal (z-score),[17],-0.326
same,glycan array binding signal (z-score),[18],-0.337
same,glycan array binding signal (z-score),[19],-0.337
same,glycan array binding signal (z-score),[20],-0.324
same,glycan array binding signal (z-score),[21],-0.323
same,glycan array binding signal (z-score),Neu5Ac(a2-6)Gal,-0.339
same,glycan array binding signal (z-score),[22],-0.329
same,glycan array binding signal (z-score),Neu5Ac(a2-6)Gal(b1-4)Glc,-0.332
same,glycan array binding signal (z-score),[23],-0.329
same,glycan array binding signal (z-score),[24],-0.34
same,glycan array binding signal (z-score),[25],-0.334
same,glycan array binding signal (z-score),[26],-0.329
same,glycan array binding signal (z-score),[27],-0.331
